The structures appear in SMILES notation. The whole screen tested about 52,000 compounds, of which about 4,300 (8.3%) were called active. Cut-off read from the data, not from the text of the source: active = survival mostly below about 52% (no sharp cut-off); inactive = mostly above about 56%. The list shows a part of the results.

This test has as its system DeltatarO mutant. The experiment in a line: growth inhibition of S. aureus wild type versus tarO mutant, primary screen, teichoic acid synthesis inhibitors, RN4220, OD600 (AID 463173). Particulars: OD600, 18 h, hits give low values, screened at 18.75 µg/mL (by protocol).
In the case of `COc1ccc(NC(=O)Cc2csc(C)n2)cc1`, the survival was inactive: 47%.
Under `COc1ccccc1CNC(=O)c1cccc(Nc2nc3ccccc3n3nnnc23)c1` stands inactive: 51%; under `N#Cc1c(N)oc(-c2ccc3c(c2)OCO3)c1-c1ccc2c(c1)OCO2`, inactive: 89%; under `Cc1ccc2nc(N3CCN(c4cccc(C)c4C)CC3)c3nnnn3c2c1`, inactive: 81%.
Then `COc1ccc(Cn2nnnc2C(c2ccccc2F)N(Cc2ccco2)CC2CCCO2)cc1` (stereo not given), with inactive: 68%.
Under `CCC1CN(C(=O)N2CCC(C(=O)NCc3cccs3)CC2)c2cc(C)ccc2O1` (stereo not given) stands inactive: 86%; under `CCOC(=O)C1CCN(S(=O)(=O)c2cc(-c3cc(C)no3)ccc2C)CC1`, inactive: 94%; under `Cc1cccc(-c2nc3scc(CCNC(=O)c4ccccc4Cl)n3n2)c1`, inactive: 73%.
Turning to `CCCCNS(=O)(=O)c1ccc2c(c1)C(=C(C#N)C#N)c1cc(S(=O)(=O)NCCCC)ccc1-2`, the survival is inactive: 89%.
Under `CCCCCn1c(=O)[nH]c2cc(C(=O)Nc3ccc(F)cc3)ccc2c1=O` stands inactive: 95%; under `CC(C)c1nn2c(=O)cc(COC(=O)c3ccc(NC(=O)CCc4ccccc4)cc3)nc2s1`, inactive: 94%; under `Cc1cccc(NC(=O)CSc2nnc(CNC(=O)c3c(F)cccc3Cl)o2)c1C`, inactive: 96%.
Under `CC1CCN(CCNC(=O)c2ccc(Cn3c(SCc4ccccc4)nc4cccnc43)cc2)CC1` stands inactive: 107%.
Under `CC(=O)c1ccc(NC(=O)NCCc2c[nH]c3ccccc23)cc1` stands inactive: 101%; under `COc1ccc(N2CCN(C(=O)CN(c3cccc(C(F)(F)F)c3)S(C)(=O)=O)CC2)cc1`, inactive: 102%; under `CCCC12CN3CC(C)(CN(C1)C3c1cn(C)c3ccccc13)C2=O` (stereo not given), inactive: 96%.
Regarding `CCc1cccc(NCc2ccccc2-c2nnc(-c3ccccc3Cl)o2)c1`, the survival was inactive: 87%.
Under `CCOc1ccc(NC(=O)c2ccc(F)c(S(=O)(=O)NCc3ccc4c(c3)OCO4)c2)cc1` stands inactive: 81%; under `CC(=O)Nc1ccc(S(=O)(=O)Nc2ccc3c(c2)OC(C)(C)O3)cc1`, inactive: 101%.
Then `COc1ccc(-n2c(SCc3ccccc3F)nc3c([nH]c4ccccc43)c2=O)cc1`, with inactive: 92%; and `O=C(NC1CC(=O)N(c2ccc(Cl)cc2)C1)c1ccc(S(=O)(=O)N2CCCC2)cc1` (stereo not given), with inactive: 79%.
Under `Cc1ccccc1CSc1nnc2[nH]c(=O)cc(C)n12` stands inactive: 84%; under `O=C(Cn1cc(S(=O)(=O)Cc2ccc(F)cc2)c2ccccc21)NCc1ccccc1Cl`, inactive: 79%.
For the compound `O=C(NCCCc1nc2ccccc2n1Cc1ccc(Cl)cc1)c1ccco1`, the survival is inactive: 105%.
Then `CCOc1ccc(NC(=O)CSc2nnc(-c3ccc(C)cc3)c(-c3ccc(C)cc3)n2)cc1`, with inactive: 115%; and `Cc1oc2ncn(CC(C)C)c(=O)c2c1C(=O)NCCCN(Cc1ccccc1)C(C)C`, with inactive: 117%; and `CCc1cccc(C)c1NC(=O)CSc1nnc(N)s1`, with inactive: 80%.
Then `COc1ccc(CCNC(=O)CS(=O)Cc2nc(-c3ccc(C)cc3)oc2C)c(OC)c1` (stereo not given), with inactive: 91%; and `O=C(Cn1c(=O)nc(-c2ccccc2)c2ccccc21)NCCCc1ccccc1`, with inactive: 67%; and `Cc1ccccc1N1CCN(S(=O)(=O)c2nnc(NC(=O)c3ccc(Cl)cc3)s2)CC1`, with active: 43%.
Then `CCOc1ccccc1NS(=O)(=O)c1cnc(N)nc1`, with active: -1%; and `COc1ccccc1N1CCN(C(=O)Cc2c(C(=O)O)c(C)cn2C)CC1`, with active: -5%.
Regarding `COc1ccc(-c2cc(C(=O)NCc3ccccc3)c3c(-c4ccccc4)[nH]nc3n2)cc1`, the survival is inactive: 93%.
Under `CC1CCN(C(=O)Cn2ncc3c4ccccc4n(Cc4ccc(Cl)cc4)c3c2=O)CC1` stands inactive: 87%; under `CCCCSCCCNC(=O)C1CCC(CNS(=O)(=O)c2ccccc2)CC1` (stereo not given), inactive: 89%; under `CC(=O)c1ccc(NC(=O)c2cc(-c3ccc(Cl)c(Cl)c3)on2)cc1`, active: 47%.
Then `CCc1ccccc1NC(=O)C1CCCN(c2nnc(-n3c(C)ccc3C)s2)C1` (stereo not given), with inactive: 73%.
In the case of `CCn1c(CN2CCOCC2)nc2cc(NC(=O)c3cc(OC)c(OC)c(OC)c3)ccc21`, the survival is inactive: 89%.
Then `CC(=O)c1ccc(NC(=O)C2CCC(CNS(=O)(=O)c3ccc4c(c3)CCCC(=O)N4)CC2)cc1` (stereo not given), with inactive: 73%.
Then `CSc1nn(Cc2ccc(Br)cc2)c(N(C(C)=O)C(C)=O)c1S(=O)(=O)c1ccccc1`, with inactive: 60%; and `Cc1c(C(=O)N(C)c2cccc(C(F)(F)F)c2)sc2nc3n(c(=O)c12)CCCCC3`, with inactive: 100%; and `CCOc1ccc(OCC(=O)Nc2c(C(=O)Nc3ccc(C)cc3)oc3ccccc23)cc1`, with inactive: 73%.
Under `CCOc1ccc(CNC(=O)c2cnc3sc(N4CCC(C)CC4)nn3c2=O)cc1OC` stands inactive: 74%; under `COC(=O)C1=C(C)NC2=C(C(=O)CC(c3ccco3)C2)C1c1cccc(OC)c1` (stereo not given), inactive: 93%.
Turning to `O=S(=O)(Nc1cccc(-c2ccc(N3CCCCC3)nn2)c1)c1ccc(Cl)s1`, the survival is inactive: 84%.
Under `Fc1ccc(CNc2nc3ccc(Cl)cc3n3nnnc23)cc1` stands inactive: 90%; under `COc1cccc(-n2c(=O)c3sc4ccccc4c3n(CC(=O)Nc3cccc(Cl)c3)c2=O)c1`, inactive: 69%.
Under `O=C(Nc1ccc(F)cc1F)c1ccc2c(=O)n3c(nc2c1)CCCCC3` stands inactive: 57%; under `O=C(Nc1ccc2c(c1)N(C1CCCC1)C(=O)c1ccccc1S2)c1ccc(F)cc1`, inactive: 66%; under `O=S(=O)(c1cccc(Cl)c1)c1nnn2c1nc(NC1CCCCCC1)c1sccc12`, inactive: 106%.
Under `CCN(CC)CCCNC(=O)c1ccc2nc(CCc3ccccc3)oc2c1` stands inactive: 92%.
`Cc1cc(C(=O)Nc2cccc(OC(C)C)c2)c(C)o1`: the survival is inactive: 105%.
Under `Cc1ccc(S(=O)(=O)c2c(C)nn(-c3ccccc3)c2OC(=O)c2ccccc2F)cc1` stands inactive: 83%; under `CCN(CC)c1ccc(NC(=O)C2COc3ccc(OC)cc3C2)c(C)c1` (stereo not given), inactive: 135%; under `CCCC(=O)N(Cc1nc2ccccc2c(=O)[nH]1)C1CCCC1`, inactive: 102%.
Then `C=Cc1ccc(Cn2c(=O)n(-c3cccc(C)c3)c(=O)c3c2c2cc(C)ccc2n3C)cc1`, with inactive: 107%.
Then `COc1ccc(-c2nc3ccccc3s2)cc1NC(=O)c1cc2ccccc2o1`, with active: 38%; and `CC1CCc2onc(C(=O)N3CCN(c4cccc(C(F)(F)F)c4)CC3)c2C1` (stereo not given), with active: 37%; and `Cc1ccc(NC(=O)CCNS(=O)(=O)c2cccc3nsnc23)cc1`, with inactive: 57%.
Take `Cc1ccc(NC(=O)Cn2c(C)cc(C)c(C#N)c2=O)cc1F`: the survival is inactive: 94%.
Then `Cc1cc(C)c(/C=C/c2onc(C)c2S(=O)(=O)N2CCC(C(=O)N3CCN(c4ccc(Cl)cc4)CC3)CC2)c(C)c1`, with inactive: 78%.
Regarding `Cc1ccc(C(=O)Nc2nc3n(n2)C(c2ccccc2)C=C(c2ccccc2)N3)cc1` (stereo not given), the survival is inactive: 57%.
For the compound `Cn1nnc(C(O)CNCc2ccc(F)cc2)n1` (stereo not given), the survival is inactive: 105%.
Consider `CC(=O)N1CCCc2cc(S(=O)(=O)N3CCN(c4ccc(F)cc4)CC3)ccc21`, for which the survival was inactive: 87%.
`CCC(=O)OCCCNc1nc(-c2ccc(Cl)cc2)nc2ccccc12`: the survival is active: -2%.
Under `CCc1cccc(-n2nnc(-c3nc(-c4cccs4)no3)c2N)c1` stands inactive: 72%; under `COc1ccc(NC(=O)c2noc3c2CSc2ccccc2-3)cc1Cl`, inactive: 73%.
Then `Clc1ccc2nc(-c3ccc(Br)o3)c(Nc3ccc4c(c3)OCCO4)n2c1`, with inactive: 109%; and `COc1cccc(OC)c1C(=O)Nc1cccc(-c2nc3cc(C)cc(C)c3o2)c1`, with inactive: 68%; and `O=C(Cn1nc(Cc2cccnc2)c2ccccc2c1=O)Nc1cccc(C(F)(F)F)c1`, with inactive: 54%.
On to `CN1CCN(C(c2cccc(Br)c2)c2sc3nc(-c4ccco4)nn3c2O)CC1` (stereo not given), for which the survival is inactive: 70%.
Then `CCOc1ccc(-c2nonc2NC(=O)c2ccc(C)cc2)cc1OCC`, with inactive: 100%; and `O=C(Cc1csc2ccccc12)NCc1ccccc1F`, with inactive: 82%; and `CCOc1ccc(-c2nc(SCC(=O)Nc3ccc4c(c3)OCCO4)c(-c3ccc(F)cc3)[nH]2)cc1`, with inactive: 97%.
Then `CCc1ccc(NC(=O)CN2C(=O)C(c3ccccc3)=NC23CCCCCC3)cc1`, with inactive: 65%.
Then `CCc1ccc(NC(=O)N(Cc2ccc(C)cc2)Cc2cccn2-c2nnc(N3CCCC3=O)s2)cc1`, with inactive: 105%.
Regarding `O=C(CSc1nc2ccsc2c(=O)n1Cc1ccccc1F)NCc1ccccc1`, the survival is inactive: 122%.
Then `O=C1CCC(=O)N1CNC1CCCCC1`, with inactive: 110%; and `CC(C)OC(=O)C(N)c1ccccc1` (stereo not given), with inactive: 98%.
Under `Cc1ccc(C(CC(=O)Nc2cc(C)cc(C)c2)N2Cc3ccccc3C2=O)cc1` (stereo not given) stands inactive: 71%; under `Clc1ccc(CNc2ccccn2)cc1`, inactive: 89%; under `Cc1cccc(NC(=O)CSc2nnc(C)c(=O)[nH]2)c1`, inactive: 84%.
Under `CCS(=O)(=O)NCC(c1ccco1)N1CCN(c2ccc(OC)cc2)CC1` (stereo not given) stands inactive: 91%.
`CCN(CC)c1ccc(-n2nc3cc(C)c(NC(=O)c4ccccc4F)cc3n2)cc1`: the survival was active: 56%.
Under `Cc1ccccc1CN1c2ccccc2-c2nc(SCC(=O)NCCc3ccccc3)ncc2S1(=O)=O` stands inactive: 66%; under `Cc1ccc2nc(CSc3nnc(NC(=O)COc4ccccc4)s3)cc(=O)n2c1`, inactive: 67%; under `CCOC(=O)c1c(C)c(-c2ccccc2)n(CC(=O)NCCc2ccc(C)cc2)c1C`, inactive: 78%.
Under `CCCCc1ccc(NC(=O)COc2cccc3c(=O)n(C)ccc23)cc1` stands inactive: 94%; under `CC(OC(=O)Cc1c[nH]c2ccccc12)C(=O)NC1CCCC1` (stereo not given), inactive: 94%.
Then `CCOC(=O)c1ccc(NC(=O)c2cc(=O)c3cc(CC)ccc3o2)cc1`, with inactive: 62%.
